Enrichment score data for 18 molecules are collected here from the supplement of paper PMC10369915.

The chains are these.
B1: PRKACA_Y205 (peptide)
chain: CGTPEYLAPEI
B2: PRKACA_Y205_L206R (peptide)
chain: CGTPEYRAPEI
B3: PRPF8_Y871_P874L (peptide)
chain: LIEQAYDNLHE
B4: PROS1_Y266_C265R_YF (peptide)
chain: GGFTRYCDGKK
B5: PSEN1_Y154_L153V (peptide)
chain: LLVVVYKYRCY
B6: PSEN1_Y240_F237I (peptide)
chain: LVIIKYLPEWT
B7: PSEN1_Y154_Y154N_YF (peptide)
chain: LLVVLNKFRCF
B8: PRKCG_Y122_S119P (peptide)
chain: CGPLLYGLVHQ
B9: PRKAR1A_Y373_Y373H (peptide)
chain: RNIQQHNSFVS
B10: PRKCG_Y529_YF (peptide)
chain: PEIIAYQPFGK
B11: PRKCG_Y521_Y521N (peptide)
chain: CGTPDNIAPEI
B12: PSEN1_Y240_L235P (peptide)
chain: PVFIKYLPEWT
B13: PRKRIP1_Y90_YF (peptide)
chain: LRRREYQRQDF
B14: PRKCZ_Y263_R260H (peptide)
chain: IGHGSYAKVLL
B15: PRKN_Y372_A371T (peptide)
chain: ECKETYHEGEC
B16: PRKCG_Y312_YF (peptide)
chain: FPLELYERVRM
B17: PRNP_Y218_E219K (peptide)
chain: MCITQYKRESQ
B18: PRIM2_Y208_D204G (peptide)
chain: EGGFAYVPLKD

The list shows a part of the results. Rule as the data show it: active = 3.2 or more and inactive = the rest. Only a few entries rise above the background.
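Also: displayed peptides selected on beads carrying the immobilized SH2 domain, with library peptides lacking any tyrosine serving as negative controls.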

The target in one test is SHP2 C-SH2 domain E139D. The test can be described thus: enrichment score (SH2-bound / input frequency) (ratio); bacterial display of known human phosphotyrosine sites (pTyr-Var adds point mutants) read by sequencing; higher = stronger binding; tyrosines were phosphorylated by kinases first. Particulars: peptide library: pTyr-Var.
For the molecule B1, the enrichment score was inactive: 0.889.
With B2, the enrichment score was inactive: 0.792.
Same read-out and setting: the result for B3 reads inactive: 0.713; that for B4, inactive: 0.85; that for B5, inactive: 2.68.
The same measure, in the same setting: the value for B6 was active: 3.85; that for B7 was inactive: 1.78; that for B8 was inactive: 1.08.
Regarding B9, the enrichment score is inactive: 0.675.
Regarding B10, the enrichment score is inactive: 0.91.
Still for that read-out and setting: the result for B11 reads inactive: 0.879; that for B12, inactive: 2.01.
For the molecule B13, the enrichment score was inactive: 0.286.
Still for that read-out and setting: the value for B14 was active: 3.24; that for B15 was inactive: 0.506; that for B16 was inactive: 1.11.
Still for that read-out and setting: the result for B17 reads inactive: 0.642.
Still for that read-out and setting: the value for B18 was inactive: 0.559.

In another test the target is SHP2 C-SH2 domain wild-type. Described as above. Particulars: peptide library: pTyr-Var.
Consider B1, for which the enrichment score was inactive: 1.08.
Still for that read-out and setting: the result for B2 reads inactive: 0.841.
On the same count and under the same terms, the result for B3 reads inactive: 0.889; that for B4, inactive: 1; that for B5, inactive: 2.8.
Consider B6, for which the enrichment score was active: 3.4.
On the same count and under the same terms, the result for B7 reads inactive: 1.24; that for B8, inactive: 1.28.
The same measure, in the same setting: the value for B9 was inactive: 0.652; that for B10 was inactive: 0.811; that for B11 was inactive: 0.845.
In the case of B12, the enrichment score is inactive: 1.89.
Same read-out and setting: the result for B13 reads inactive: 0.277.
On the same count and under the same terms, the value for B14 was active: 6.32; that for B15 was inactive: 0.526.
For B16, the enrichment score was inactive: 1.21.
Regarding B17, the enrichment score is inactive: 0.576.
On the same count and under the same terms, the result for B18 reads inactive: 0.494.

The target in another test is SHP2 N-SH2 domain L43F. Described as above. To be noted: peptide library: pTyr-Var.
In the case of B1, the enrichment score is inactive: 0.83.
Same read-out and setting: the result for B2 reads inactive: 0.642; that for B3, inactive: 0.764; that for B4, inactive: 1.02.
The same measure, in the same setting: the value for B5 was inactive: 2.25.
Regarding B6, the enrichment score was inactive: 3.14.
B7: the enrichment score is inactive: 1.33.
As to B8, the enrichment score is inactive: 1.08.
On the same count and under the same terms, the value for B9 was inactive: 0.666; that for B10 was inactive: 0.868; that for B11 was inactive: 0.971.
On to B12, for which the enrichment score is inactive: 2.5.
Still for that read-out and setting: the value for B13 was inactive: 0.235.
On the same count and under the same terms, the value for B14 was inactive: 2.11; that for B15 was inactive: 0.502; that for B16 was inactive: 0.921.
On to B17, for which the enrichment score is inactive: 0.586.
Still for that read-out and setting: the value for B18 was inactive: 0.716.

Another test has as its target SHP2 N-SH2 domain T42A. The description is as above. Particulars: peptide library: pTyr-Var.
In the case of B1, the enrichment score is inactive: 0.684.
As to B2, the enrichment score was inactive: 0.591.
On the same count and under the same terms, the value for B3 was inactive: 0.603; that for B4 was inactive: 0.968.
With B5, the enrichment score is inactive: 2.15.
On the same count and under the same terms, the value for B6 was inactive: 2.46; that for B7 was inactive: 1.4.
Consider B8, for which the enrichment score is inactive: 1.04.
With B9, the enrichment score was inactive: 0.667.
Regarding B10, the enrichment score is inactive: 1.31.
On to B11, for which the enrichment score was inactive: 0.752.
Still for that read-out and setting: the result for B12 reads inactive: 2.13; that for B13, inactive: 0.236.
Same read-out and setting: the result for B14 reads active: 5.6; that for B15, inactive: 0.407; that for B16, inactive: 1.05.
In the case of B17, the enrichment score is inactive: 0.573.
Still for that read-out and setting: the value for B18 was inactive: 0.513.

The target in the next test is SHP2 N-SH2 domain T52S. The test is described as above. Particulars: peptide library: pTyr-Var.
Consider B1, for which the enrichment score is inactive: 0.628.
Regarding B2, the enrichment score was inactive: 0.722.
Same read-out and setting: the value for B3 was inactive: 1.05; that for B4 was inactive: 1.06; that for B5 was inactive: 3.01.
Same read-out and setting: the value for B6 was inactive: 3.17.
On the same count and under the same terms, the result for B7 reads inactive: 1.2; that for B8, inactive: 1.02.
Regarding B9, the enrichment score is inactive: 0.965.
Still for that read-out and setting: the value for B10 was inactive: 0.884.
The same measure, in the same setting: the result for B11 reads inactive: 0.639.
Same read-out and setting: the value for B12 was inactive: 2.15; that for B13 was inactive: 0.27; that for B14 was inactive: 2.89.
In the case of B15, the enrichment score was inactive: 0.641.
B16: the enrichment score is inactive: 1.08.
Regarding B17, the enrichment score is inactive: 0.808.
Still for that read-out and setting: the result for B18 reads inactive: 0.392.

The next test deals with SHP2 N-SH2 domain wild-type. Described as above. Particulars: peptide library: pTyr-Var.
With B1, the enrichment score was inactive: 1.31.
Consider B2, for which the enrichment score was inactive: 0.895.
As to B3, the enrichment score is inactive: 0.591.
Consider B4, for which the enrichment score was inactive: 1.02.
On the same count and under the same terms, the result for B5 reads inactive: 1.49.
Take B6: the enrichment score was inactive: 3.01.
As for B7, the enrichment score was inactive: 1.4.
B8: the enrichment score is inactive: 1.65.
In the case of B9, the enrichment score was inactive: 0.75.
Still for that read-out and setting: the result for B10 reads inactive: 0.837; that for B11, inactive: 1.05.
Consider B12, for which the enrichment score was inactive: 1.85.
Consider B13, for which the enrichment score is inactive: 0.198.
In the case of B14, the enrichment score is inactive: 1.05.
As for B15, the enrichment score was inactive: 0.552.
On the same count and under the same terms, the value for B16 was inactive: 1.26; that for B17 was inactive: 0.582.
For the molecule B18, the enrichment score was inactive: 0.53.
